Measured values as given in article PMC4336329 (PLoS ONE, 2015).
Out of some 310,000 compounds screened, about 2,200 (0.71%) showed an effect of 50% or more. Effects have a minus sign here. The list shows a part of the results.

Target: human ether-à-go-go-related gene (hERG) potassium channel (human, UniProt Q12809)
Test: primary screen, population patch clamp on CHO cells stably expressing hERG

Chain of human ether-à-go-go-related gene (hERG) potassium channel (Q12809 whole entry, looked up): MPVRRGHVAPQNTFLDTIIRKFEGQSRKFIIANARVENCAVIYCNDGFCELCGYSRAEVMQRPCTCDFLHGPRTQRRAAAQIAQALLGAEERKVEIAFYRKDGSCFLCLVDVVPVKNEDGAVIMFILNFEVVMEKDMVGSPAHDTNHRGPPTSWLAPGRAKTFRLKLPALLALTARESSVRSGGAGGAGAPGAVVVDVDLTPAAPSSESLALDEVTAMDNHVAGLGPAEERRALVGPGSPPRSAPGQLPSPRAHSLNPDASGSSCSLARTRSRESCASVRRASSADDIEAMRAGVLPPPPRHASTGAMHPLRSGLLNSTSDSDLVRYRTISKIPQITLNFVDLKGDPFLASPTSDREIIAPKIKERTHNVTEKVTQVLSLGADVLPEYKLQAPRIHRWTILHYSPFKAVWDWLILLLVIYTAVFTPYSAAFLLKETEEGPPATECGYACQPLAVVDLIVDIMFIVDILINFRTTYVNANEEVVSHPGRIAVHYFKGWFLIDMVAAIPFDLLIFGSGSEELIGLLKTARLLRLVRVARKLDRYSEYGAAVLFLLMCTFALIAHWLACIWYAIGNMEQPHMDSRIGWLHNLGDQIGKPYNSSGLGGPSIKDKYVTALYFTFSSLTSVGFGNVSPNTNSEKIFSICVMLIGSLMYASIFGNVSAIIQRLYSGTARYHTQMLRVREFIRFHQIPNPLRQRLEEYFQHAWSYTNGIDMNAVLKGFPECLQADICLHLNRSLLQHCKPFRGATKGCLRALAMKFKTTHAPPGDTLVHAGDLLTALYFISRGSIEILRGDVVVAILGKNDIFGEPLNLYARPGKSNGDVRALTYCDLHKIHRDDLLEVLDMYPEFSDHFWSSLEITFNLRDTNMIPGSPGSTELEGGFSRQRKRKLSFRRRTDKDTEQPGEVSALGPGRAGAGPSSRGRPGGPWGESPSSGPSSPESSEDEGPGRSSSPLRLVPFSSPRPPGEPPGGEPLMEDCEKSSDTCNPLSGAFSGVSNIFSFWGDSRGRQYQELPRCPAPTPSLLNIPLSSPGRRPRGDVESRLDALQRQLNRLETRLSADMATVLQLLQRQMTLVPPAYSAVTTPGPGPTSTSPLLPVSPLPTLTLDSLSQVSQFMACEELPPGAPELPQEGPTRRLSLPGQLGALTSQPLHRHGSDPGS

| SMILES | hERG current change (%, negative = inhibition) at 1uM |
| --- | --- |
| Cc1ccc(NC(=O)c2ccc3nc[nH]c3c2)cc1C | -3.57% |
| O=C(Nc1ccc2c(c1)CCCN2C(=O)c1cccs1)c1c(F)cccc1F | 19.6% |
| CC(=O)Nc1cccc(-c2nnc(SCC(=O)n3c4c(c5ccccc53)CCCC4)n2C)c1 | 9.09% |
| COc1ccccc1-c1cc(C(=O)N2CCOCC2)no1 | 16.7% |
| COc1ccc(Cn2c(C(C)C)nc3sc4ccccc4c(=O)c3c2=O)cc1 | 13.7% |
| Cc1ccc(Cl)c(OCC(=O)OC(C)C(=O)NC2CC2)c1 (stereo not drawn) | 12.6% |
| Nc1ccc(S(=O)(=O)N2CCc3ccccc32)cc1 | 9.7% |
| CN(C)c1ccc(C(CNS(=O)(=O)c2cccc([N+](=O)[O-])c2)N2CCOCC2)cc1 (stereo not drawn) | 7.55% |
| CC(=O)Nc1ccc(NC(=O)Cn2c(=O)n(-c3ccccc3)c(=O)c3oc4ccccc4c32)cc1 | -1.05% |
| COc1cc(C(=O)Nc2ccc(-n3cnnn3)c(C)c2)cc(OC)c1OC | 10.8% |
| COc1ccccc1C(=O)OCc1nc(N)nc(Nc2ccccc2C)n1 | 6.99% |
| CN(C)c1ccnc2sc(C(=O)NCc3ccccc3)c(N)c12 | -20.7% |
| CCOc1cc2c(cc1OCC)-n1cccc1C(c1ccc(F)c(OC)c1)NC2.Cl (stereo not drawn) | 7.9% |
| Cc1[nH]nc(Sc2ccccn2)c1[N+](=O)[O-] | 5.84% |
| C#CCOCCOCCOCCNc1nc(N2CCN(C(=O)Cn3cc(CCCC[NH3+])nn3)CC2)nc(N2CCN(C(=O)[C@H](CCCC[NH3+])n3cc(CCCC)nn3)CC2)n1.[Cl-] | 8.76% |
| CCOc1ccc2nc(SC3CC(=O)N(c4ccc(OC)cc4)C3=O)sc2c1 (stereo not drawn) | 6.56% |
| Cc1cc(C)c(S(=O)(=O)c2ccccc2C)c(OCCO)n1 | 3.05% |
| CCOc1ccc(NC(=O)c2cccc(OC(=S)N3CCC(C)CC3)c2)cc1 | 6.81% |
| O=C(NC(c1ccccc1)c1ccccc1)N1CCN(CCO)CC1 | 5.24% |
| CCOC(=O)c1c(C)[nH]c(C)c1C(=O)COC(=O)c1sccc1C | 7.05% |
| Cc1cc(C)n(C(=O)c2cc([N+](=O)[O-])cc([N+](=O)[O-])c2)n1 | 12.1% |
| Cc1cc(C(=O)NC2CCCC2)on1 | 0.83% |
| O=C(c1ccc(Cl)c(S(=O)(=O)N2CCCC2)c1)N1CCN(c2ccccc2F)CC1 | 5.8% |
| O=C(Oc1oc(-c2ccco2)nc1C=Nc1ccccc1)c1ccoc1 | 18.5% |
| CCOC(=O)c1sc(N2C(=O)C(O)=C(C(=O)c3ccco3)C2c2ccc(C)o2)nc1C (stereo not drawn) | 11.9% |
| COc1ccc(OC)c(C2C3=C(COC3=O)Nc3cc4c(cc32)OCO4)c1 (stereo not drawn) | 10.1% |
| COCC(C)n1c(C)cc(C(=O)COC(=O)c2ccc3c(c2)NC(=O)CS3)c1C (stereo not drawn) | 12.2% |

| SMILES | hERG current change (%, negative = inhibition) at 1uM |
| --- | --- |
| CC(NC(=O)C1CCC(CNc2c(N3CCCCC3)c(=O)c2=O)CC1)c1ccccc1 (stereo not drawn) | 5.36% |
| CCn1cc(/C=N/NC(=O)c2ccc3c(c2)OCO3)c(C)n1 | 14.1% |
| c1ccc(-c2noc(CSc3nnnn3C3CCCCC3)n2)cc1 | 3.01% |
| COc1ccccc1NC(=O)C1=C(C)NC(=O)NC1c1ccc(C)cc1 (stereo not drawn) | 5.77% |
| CCn1c(SCC(=O)N2CCCCC2)nc2c(c1=O)SCC2 | 12% |
| Cc1cc(=O)oc2c(C)c(OCC(=O)NCCCN3CCOCC3)ccc12 | 18.6% |
| COc1ccc(OC)c(S(=O)(=O)N2CCC(C(=O)N3CCN(c4ccc(F)cc4)CC3)CC2)c1 | -19.8% |
| Cc1noc(C)c1C(=O)OCC(=O)Nc1ccccc1SCC#N | -0.938% |
| CSc1nc(Cc2ccc(Cl)cc2)nc2ccccc12 | 6.83% |
| Cn1c(=O)c2[nH]c(N3CCOCC3)nc2n(-c2ccccc2)c1=O | 13.6% |
| O=C(Nc1ccc(Cl)cn1)c1cc(S(=O)(=O)N2CCCCC2)ccc1Cl | 0.512% |
| Cc1cccc(NC(=O)c2onc3c2CCCC3)n1 | -8.99% |
| CC(Oc1ccc2c(-c3ccccc3)cc(=O)oc2c1)C(=O)NCc1ccccn1 (stereo not drawn) | -2.51% |
| COc1ccc(C2(C(=O)N3CCOCC3)CCCC2)cc1 | 16.4% |
| COc1cccc(NC(=O)CN(C)C(=O)CSc2nc(C)cc(C)n2)c1 | 13% |
| C/C(=N\NC(=O)COc1cc(C)cc(C)c1)c1cccc(NC(=O)C2CCC2)c1 | 4.02% |
| CCCN(C(=O)CCNC(=O)Cn1cnc2ccccc2c1=O)c1cccc(Cl)c1 | 10% |
| COC(=O)CN1C(=O)[C@H]2[C@@H](/C=C/c3ccccc3)N3C(=O)CN(CC4CC4)C(=O)[C@@]3(Cc3ccccc3)[C@H]2C1=O | 15.5% |
| Cc1ccc(S(=O)(=O)NC2=NCN(C3CCN(Cc4ccccc4)CC3)CN2)cc1 | -6.75% |
| CC(C)Oc1ccc(C(=O)NC(C)(C)CO)cc1 | 15.1% |
| COc1cc(Br)cc(C(c2c(C)n(C)n(-c3ccccc3)c2=O)c2c(C)n(C)n(-c3ccccc3)c2=O)c1O | 7.67% |
| CCOC(=O)c1cc(C(=O)OCC)c2cc(Br)ccc2n1 | -4.65% |
| CCc1ccc(S(=O)(=O)c2n[nH]n3c2nc(=O)c2ccccc23)cc1 | -3.37% |
| Cc1ccc(NC(=O)C(C)C(=O)Nc2ccc(C)cc2)cc1 | 12.8% |
| COc1ccc(/C=C/C(O)=C(\C#N)c2nnc(N3CCOCC3)n2-c2ccccc2)cc1OC | 4.53% |
| Cc1oc2cc3oc(=O)c(CCC(=O)NC4CC4)c(C)c3cc2c1C | 15.2% |
| Cc1ccc(Nc2c(-c3ccco3)nc3nc(C)cc(C)n23)cc1 | 3.6% |
